According to US11457629B2, “Heteroarylphenylaminoquinolines and analogues” (Bayer Aktiengesellschaft, priority 2017, dated 2022):
Marks after values point to notes of the source that are not given here.

Outline: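 Values were calibrated against C3–C16 straight-chain alkan-2-ones of known Log P, interpolating linearly between retention times. Separation used reversed-phase HPLC with 0.1% formic acid (acidic range), per EEC 79/831 Annex V.A8. Multiple values from one method are all reported, separated by "+".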

In the case of `Clc1c(Nc2ccccc2-c2ccnn2CCc2ccccc2)cnc2ccccc12` [Example I-167], the logP is reported as 4.39 ^[a].
For `CCn1nccc1-c1ccccc1Cc1cnc2c(C(F)(F)F)cccc2c1` [Example I-336], the “Log P” value was 3.79 ^[a].
With `CC1(C)CC(c2ccccc2Nc2cnc3c(F)cccc3c2)=NO1` [Example I-039] the logP was 3.92 ^[a].
In the case of `CC1=NOC(c2ccccc2Nc2cnc3ccccc3c2)C1` (centres unmarked) [Example I-011], the logP is reported as 1.88 ^[a].
For `CC(C)n1nccc1-c1c(F)cccc1Nc1cnc2c(F)c(F)ccc2c1` [Example I-100], the logP was 3.55 ^[a].
For `Cn1nccc1-c1c(F)cccc1Nc1cnc2c(F)c(F)ccc2c1` [Example I-082], the logP was 2.92 ^[a].
With `CCn1nccc1-c1ccccc1Nc1cnc2c(F)c(F)ccc2c1` [Example I-151] the logP was 3.09 ^[a].
In the case of `Cc1ccc(Nc2cnc3c(F)cccc3c2C)c(-c2ccnn2C)c1F` [Example I-209], the logP is reported as 3.17 ^[a].
In the case of `Cn1nccc1-c1c(F)cccc1Nc1c[nH]c2c(F)c(F)ccc2c1=O` [Example I-270], the “Log P” value is reported as 2.16 ^[a].
With `Cc1cnn(C)c1-c1cc(F)ccc1Nc1cc2ccc(F)c(F)c2nc1C` [Example I-297] the “Log P” value was 3.13 ^[a].
For `CC(C)c1csc(-c2ccccc2Nc2cnc3ccccc3c2)n1` [Example I-055], the logP was 5.93 ^[a].
With `CCn1nccc1-c1cc(F)ccc1Nc1cnc2c(F)cccc2c1` [Example I-150] the logP was 2.90 ^[a].
In the case of `Cn1nccc1-c1c(F)cccc1Nc1cnc2ccccc2c1Cl` [Example I-085], the logP is reported as 3.11 ^[a].
With `Cc1c(Nc2cccc(F)c2-c2ccnn2C)cnc2c(F)c(F)ccc12` [Example I-195] the logP was 3.11 ^[a].
In the case of `c1ccc(CCn2nccc2-c2ccccc2Nc2cnc3ccnn3c2)cc1` [Example I-138], the logP is reported as 3.02 ^[a].
For `CC1CON=C1c1ccccc1Nc1cnc2ccccc2c1` (racemic) [Example I-059], the logP was 2.88 ^[a].
For `Cc1nc2c(F)c(F)ccc2nc1Nc1ccccc1-c1ccnn1CCc1ccccc1` [Example I-172], the logP was 4.56 ^[a].
With `C=CCn1nccc1-c1ccccc1Cc1cc2ccc(F)c(F)c2nc1C` [Example I-321] the “Log P” value was 3.87 ^[a].
In the case of `Cn1nccc1-c1c(F)cccc1Nc1cnc2c(F)cccc2c1` [Example I-081], the logP is reported as 2.70 ^[a].
With `CC(C)(C)n1ccc(-c2ccccc2Cc2cnc3ccccc3c2)n1` [Example I-205] the logP was 2.82 ^[a].
For `CC1=NOC(C)(c2c(F)cccc2Nc2cc3ccc(F)c(F)c3nc2C)C1` (racemic) [Example I-042], the logP was 4.23 ^[a].
With `Cc1nc2c(F)c(F)ccc2cc1Nc1ccccc1C1=NOC(C)(C)C1` [Example I-041] the logP was 4.51 ^[a].
For `Cc1nc2c(F)c(F)ccc2nc1Cc1ccccc1-c1ccnn1C(C)C` [Example I-345], the “Log P” value was 3.76 ^[a].
In the case of `Cc1nc2c(F)c(F)ccc2cc1Nc1ccc(F)cc1-c1cc(C(F)(F)F)nn1C(C)C` [Example I-295], the “Log P” value is reported as 4.53 ^[a].
In the case of `Cc1nc2c(F)c(F)ccc2cc1Nc1ccccc1-c1ccnn1Cc1ccccc1` [Example I-097], the logP is reported as 4.08 ^[a].
In the case of `Cc1nc2c(F)c(F)ccc2nc1Cc1ccccc1-c1ccnn1C` [Example I-344], the “Log P” value is reported as 2.96 ^[a].
With `CCn1nccc1-c1c(Nc2cnc3c(F)c(F)ccc3n2)ccc(F)c1F` [Example I-250] the “Log P” value was 3.79 ^[a].
In the case of `Cn1nccc1-c1cc(F)ccc1Cc1cnc2c(F)cccc2c1` [Example I-252], the “Log P” value is reported as 2.70 ^[a].
In the case of `CCn1nccc1-c1ccccc1Nc1cc2ccc(F)c(F)c2nc1C` [Example I-149], the logP is reported as 3.27 ^[a].
With `Cn1nccc1-c1cc(F)ccc1Nc1cnc2ccnn2c1` [Example I-137] the logP was 1.95 ^[a].
For `Cn1nccc1-c1cc(F)ccc1Nc1cnc2c(F)c(F)ccc2c1` [Example I-153], the logP was 2.86 ^[a].
In the case of `Cc1nc2c(F)c(F)ccc2cc1Nc1cccc(F)c1-c1ccnn1CC(F)(F)F` [Example I-285], the “Log P” value is reported as 4.58 ^[a].
With `CC(C)n1nccc1-c1c(F)cccc1Nc1cnc2c(F)cccc2c1` [Example I-099] the logP was 3.29 ^[a].
With `CCn1nccc1-c1ccccc1Nc1cnc2ccccc2c1C` [Example I-155] the logP was 1.95 ^[a].
In the case of `Cn1nccc1-c1c(Nc2cnc3ccccc3c2Cl)ccc(F)c1F` [Example I-237], the logP is reported as 3.05 ^[a].
In the case of `Cn1nccc1-c1c(F)ccc(F)c1Nc1cnc2c(F)c(F)ccc2c1` [Example I-271], the “Log P” value is reported as 2.71 ^[a].
For `Cc1nc2c(F)c(F)ccc2cc1Nc1cccc(F)c1-c1ccn(C)n1` [Example I-052], the logP was 4.44 ^[a].
With `CCC1=NOC(C)(c2ccccc2Nc2cnc3ccccc3c2)C1` (centres unmarked) [Example I-023] the logP was 3.33 ^[b].
In the case of `Cn1nccc1-c1c(F)ccc(F)c1Nc1cnc2c(F)c(F)ccc2c1F` [Example I-309], the “Log P” value is reported as 2.86 ^[a].
With `Cc1c(Nc2cccc(F)c2-c2ccnn2CCc2ccccc2)cnc2ccccc12` [Example I-119] the logP was 3.29 ^[a].
For `CC(C)n1nccc1-c1c(F)cccc1Nc1cnc2ccccc2c1Cl` [Example I-101], the logP was 3.96 ^[a].
With `CCn1nccc1-c1ccccc1Cc1cnc2ccccc2n1` [Example I-358] the “Log P” value was 2.64 ^[a].
In the case of `CC(C)n1ccc(-c2ccccc2Nc2cnc3ccccc3c2)n1` [Example I-003], the logP is reported as 3.70 ^[a].
In the case of `Cc1nc2c(F)c(F)ccc2cc1Nc1cccc(F)c1-c1ccnn1C(C)(C)C` [Example I-323], the “Log P” value is reported as 4.32 ^[a].
With `Cn1nccc1-c1cc(OC(F)(F)F)ccc1Nc1cnc2ccnn2c1` [Example I-259] the “Log P” value was 2.66 ^[a].
For `O=C(O)c1ncsc1-c1ccccc1Cc1cnc2ccccc2c1` [Example I-199], the logP was 1.37 ^[a].
In the case of `Cc1nc2c(F)c(F)ccc2cc1Nc1ccc(F)cc1-c1ccnn1C(C)C` [Example I-291], the “Log P” value is reported as 3.59 ^[a].
In the case of `Cc1c(Nc2cccc(F)c2-c2ccnn2C(C)C)cnc2ccccc12` [Example I-102], the logP is reported as 2.76 ^[a].
In the case of `CCn1nccc1-c1c(F)cccc1Nc1cc2ccc(F)c(F)c2nc1C` [Example I-087], the logP is reported as 3.37 ^[a].
In the case of `Cc1ccc(Nc2cnc3ccnn3c2)c(-c2ccnn2C)c1` [Example I-210], the logP is reported as 2.15 ^[a].
With `CCn1nccc1-c1c(F)cccc1Nc1cnc2ccnn2c1` [Example I-095] the logP was 2.12 ^[a].
For `Cn1nccc1-c1cc(Cl)ccc1Nc1cnc2c(F)c(F)ccc2n1` [Example I-220], the logP was 3.58 ^[a].
With `Cn1nccc1-c1ccccc1C(F)(F)c1cnc2c(F)cccc2c1` [Example I-360] the “Log P” value was 2.90 ^[a].
For `Cn1nccc1-c1cc(Cl)ccc1Nc1cnc2c(F)cccc2c1` [Example I-226], the logP was 3.13 ^[a].
With `Fc1ccc(Cn2ccc(-c3ccccc3Cc3cnc4ccccc4c3)n2)cc1` [Example I-202] the logP was 2.86 ^[a].
With `Cc1nc2c(F)c(F)ccc2cc1Nc1cccc(F)c1C1=NOC(C)(C)C1` [Example I-060] the logP was 4.80 ^[a].
In the case of `Cc1ccc(Nc2cnc3c(F)c(F)ccc3n2)c(-c2ccnn2C)c1` [Example I-218], the logP is reported as 3.23 ^[a].
With `CCn1nccc1-c1c(Nc2nc3ccc(F)c(F)c3nc2C)ccc(F)c1F` [Example I-251] the “Log P” value was 3.92 ^[a].
For `Cc1nc2c(F)c(F)ccc2cc1Nc1cccc(F)c1-c1ccnn1C1CC1` [Example I-302], the “Log P” value was 3.50 ^[a].
In the case of `Cn1nccc1-c1ccccc1Nc1cnc2ccnn2c1` [Example I-140], the logP is reported as 1.88 ^[a].
With `Cc1nc2ccccc2cc1Nc1ccccc1-c1ccnn1C` [Example I-008] the logP was 1.37 ^[a].
With `Cc1nc2c(F)c(F)ccc2cc1Nc1ccc(F)cc1-c1ccnn1C(C)(C)C` [Example I-279] the “Log P” value was 4.25 ^[a].
